The source gives no read counts; variants with many changes may rest on few reads.
B1: CPEB3 Ribozyme (parent)
chain: UAACAGGGGGCCACAGCAGAAGCGUUCACGUCGCAGCCCCUGUCAGAUUCUGGUGAAUCUGCGAAUUCUGCUGUAUAUCUC

Variants of: B1
Experiment: self-cleavage, relative activity (ratio to wild type); higher = more cleavage; in vitro, sequencing
In short: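 Relative activity compares each variant's cleaved/total read fraction with that of the unmutated ribozyme. To get these fractions, barcoded CPEB3 ribozyme libraries from rounds of error-prone PCR were transcribed with T7 RNA polymerase for 5 hours at 37°C and then given 15 min of DNase I treatment before EDTA was added. The RNAs were reverse transcribed with template switching and sequenced on Illumina, and DNA sequencing linked barcodes to variants. A minimum of 5 reads applied, and three batches were averaged.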

Question: For UAACAGGGGGCCACAGCGGAAGCCUUCACGUCGCAGCCCCUGUCAGAUUCUGGUGAGUCUGCGUAUUCUGCUGUAUAUCUC [A18G G24C A57G A64U], which self-cleavage is on record?
Answer: 0.06

Question: With UAACAGGGGGCCACAGCGGAAGCGUUCACAUCGCAGCCCCUGUCAGAUUCUGGUGGAUCUGCGAAUUCUGCUGUAUAUCUC [A18G G30A A56G] as the variant, how does the self-cleavage read?
Answer: 0.14

Question: For UAACAGGGGGCCACAGCGGAAGCGUUCACAUCGCAGCACCUGUCAGAUCCCGGUGAAUCUGCGAAUUCUGCAGUAUAUCUC [A18G G30A C38A U49C U51C U72A], which self-cleavage is on record?
Answer: 0.06

Question: Which self-cleavage does the source give for UAACAGGGGGCCACAGCGGAAGCGUUCACAUCGCAGCCCCUGCCUGAUUCUGGUGAAUCUGCGAAACCUGCUGUAUAUCUC [A18G G30A U43C A45U U66A U67C] here?
Answer: 0

Question: Which self-cleavage does the source give for UAACAGGGGGCCACAGCGGAAGCGUUCACUUCGCAGCCCCUGUCAGUUUCUGGUGAAUCUGCGAAUUCUGCUGUAUAUCUC [A18G G30U A47U] here?
Answer: 0.21

Question: Which self-cleavage does the source give for UAACAGGGGGCCACAGCGGAAGCGUUCACGUCACGGCCCCUGUCAGGUUCCGGUGCAUCUGCGAAUUCUGCUGUAUAUCUC [A18G G33A A35G A47G U51C A56C] here?
Answer: 0.29

Question: With UAACAGGGGGCCACAGCGGAAGCGUUCACGUCACAGCCCCUGUCAGAUUCUGGUGAACCUGCGAAUUCUGCUGUAUAUCUC [A18G G33A U58C] as the variant, how does the self-cleavage read?
Answer: 0.16

Question: For UAACAGGGGGCCACAGCGGAAGCGUUCACGUCCCAGCCCCCGUCAGGUUCAGGUGAUUCUGCGAAUUCUGCUGUAUACCUC [A18G G33C U41C A47G U51A A57U U78C], which self-cleavage is on record?
Answer: 0.06

Question: With UAACAGGGGGCCACAGCGGAAGCGUUCACGUCGCAGCCCCUGUCAGAUUCUAGUAAAUCUGCGUAUUCUGCUGUAUAUCUC [A18G G52A G55A A64U] as the variant, how does the self-cleavage read?
Answer: 0.14

Question: Which self-cleavage does the source give for UAACAGGGGGCCACAGCGGAAGCGUUCACGUCGCAGCCCCUGUCAGAUUCUAGUGAAUCUGCGAAUUCUGCUGUACAUCUC [A18G G52A U76C] here?
Answer: 0.32

Question: Which self-cleavage does the source give for UAACAGGGGGCCACAGCGGAAGCGUUCACGUCGCAGCCCCUGUCAGAUUCUGAUGAAUCCGCGAAUUCUGCUGUAUAUCUC [A18G G53A U60C] here?
Answer: 0.28

Question: With UAACAGGGGGCCACAGCGGAAGCGUUCACGUCGCAGCCCCUGUCAGAUUCUGUCGAAUCUGCGAAUUCUGCUGUAUACCUC [A18G G53U U54C U78C] as the variant, how does the self-cleavage read?
Answer: 0.2

Question: Which self-cleavage does the source give for UAACAGGGGGCCACAGCGGAAGCGUUCACGUCGCAGCCCCUGUCAGAUUCUGGUAAAUCUGCGAAUUCUGCCGUAUAUCUC [A18G G55A U72C] here?
Answer: 0.29

Question: Which self-cleavage does the source give for UAACAGGGGGCCACAGCGGAAGCGUUCACGUCGCAGCCCCUGUCAGAUUCUGGUGAAUCUGCGAAUUCUACCGUAUAUCUC [A18G G70A U72C] here?
Answer: 0.34

Question: With UAACAGGGGGCCACAGCGGAAGCGAUCACGUCGCGGCCCCUGUCAGAUUCUGGUGUAUCUGCGAAUUCUGCUGUAUAUCUC [A18G U25A A35G A56U] as the variant, how does the self-cleavage read?
Answer: 0.1

Question: With UAACAGGGGGCCACAGCGGAAGCGAUCACGUCGCAGCCCCUGUCUGAUUCUGGUGGAUCUGCGAAUUCUGCUGUAUAUCUC [A18G U25A A45U A56G] as the variant, how does the self-cleavage read?
Answer: 0.07

Question: Which self-cleavage does the source give for UAACAGGGGGCCACAGCGGAAGCGAUCACGUCACAGCCCCUGUCAGAUUCUGGUGAAUCUGCGAAUUCUGCUGUAUAUCUC [A18G U25A G33A] here?
Answer: 0

Question: With UAACAGGGGGCCACAGCGGAAGCGAUCACGUCGCAUCCCCUGUCAGAUUCUGGAGAAUCUGCGUAUUCUGCAGUAUAUCUC [A18G U25A G36U U54A A64U U72A] as the variant, how does the self-cleavage read?
Answer: 0.05

Question: Which self-cleavage does the source give for UAACAGGGGGCCACAGCGGAAGCGAUCACGUCGCAGCCCCUGUCAGAUCCUGGUGAAUCUGCGAAUUCUGCUGUAUACCUC [A18G U25A U49C U78C] here?
Answer: 0.2

Question: For UAACAGGGGGCCACAGCGGAAGCGAUCACGUCGCAGCCCCUGUCAGAUUCUGGUGAAUCUGCGAAUCCUGCUGUACAUCUC [A18G U25A U67C U76C], which self-cleavage is on record?
Answer: 0.06

Question: Which self-cleavage does the source give for UAACAGGGGGCCACAGCGGAAGCGAUCACGUCGCAGCCCCUGUCAGAUUCUGGUGAAUCUGCGAAUUCCGCUGUAUAACUC [A18G U25A U69C U78A] here?
Answer: 0.1

Question: Which self-cleavage does the source give for UAACAGGGGGCCACAGCGGAAGCGCUCGCGUCGCAGCCCCUGUUAGAUUCUGGUGAAUCUGCGAAUUCUGCUGUAUAUCUC [A18G U25C A28G C44U] here?
Answer: 0.33

Question: Which self-cleavage does the source give for UAACAGGGGGCCACAGCGGAAGCGCUCACGUCGCGGCCCCUGUCAGAUUCUGGUGAAUCUGCGAAUUCGGCUGUAUAACUC [A18G U25C A35G U69G U78A] here?
Answer: 0.17

Question: With UAACAGGGGGCCACAGCGGAAGCGCUCACGUCGCAGCCCCUGUCUGAUUCUGGUGAAUCCGCGUAUUCUGCUGUGUGUCUC [A18G U25C A45U U60C A64U A75G A77G] as the variant, how does the self-cleavage read?
Answer: 0.08

Question: With UAACAGGGGGCCACAGCGGAAGCGCUCACGUCGCAGCCCCUGUCAGGUUCUGGUGAAUCUGCGAAUUCUGCUGUAUAUCUC [A18G U25C A47G] as the variant, how does the self-cleavage read?
Answer: 0.28

Question: With UAACAGGGGGCCACAGCGGAAGCGCUCACGUCGCAGCCCCUGUCAGAUUCUGGUGAGUCUGCGGAUUCUGCUGUAUAUCUC [A18G U25C A57G A64G] as the variant, how does the self-cleavage read?
Answer: 0.24

Question: For UAACAGGGGGCCACAGCGGAAGCGCUCACGUUGCAGCCCCUGUCAGAUUCUGGUGAAUCUGCGAACUCUGCUGUAUAUCUC [A18G U25C C32U U66C], which self-cleavage is on record?
Answer: 0.21

Question: Which self-cleavage does the source give for UAACAGGGGGCCACAGCGGAAGCGCUCACUUCGCAGCCCCCGUCAGAUUCUGGGGAAUCUGCGUAUUCUGCUGUAUAUCUC [A18G U25C G30U U41C U54G A64U] here?
Answer: 0.22

Question: With UAACAGGGGGCCACAGCGGAAGCGCUCACGUCGCACCCCCAGUCAGAUUCUGGUGAUUCUGCGAAUUCUGCUGUAUAUCUC [A18G U25C G36C U41A A57U] as the variant, how does the self-cleavage read?
Answer: 0.07

Question: Which self-cleavage does the source give for UAACAGGGGGCCACAGCGGAAGCGCUCACGUCGCAGCCCCUGUCAGAUUCUGGUGAAUCUCCGAACUCCGCUGUAUAUCUC [A18G U25C G61C U66C U69C] here?
Answer: 0.14

Question: With UAACAGGGGGCCACAGCGGAAGCGCUCACGUCGCAGCCCCUGCCAGAUUCUGGUGAAUCUGCGAAUUCUGCUGUAUACCCC [A18G U25C U43C U78C U80C] as the variant, how does the self-cleavage read?
Answer: 0.1

Question: For UAACAGGGGGCCACAGCGGAAGCGCUCACGUCGCAGCCCCUGUCAGAUUCUGGUGAAUCUGCGAAUUCCGCUGUAUAUCUC [A18G U25C U69C], which self-cleavage is on record?
Answer: 0.32

Question: With UAACAGGGGGCCACAGCGGAAGCGCUCACGUCGCAGCCCCUGUCAGAUUCUGGUGAAUCUGCGAAUUCCGCUGAAUAUCUC [A18G U25C U69C U74A] as the variant, how does the self-cleavage read?
Answer: 0.11

Question: For UAACAGGGGGCCACAGCGGAAGCGCUCACGUCGCAGCCCCUGUCAGAUUCUGGUGAAUCUGCGAAUUCUGCCGUAUAUCUC [A18G U25C U72C], which self-cleavage is on record?
Answer: 0.18

Source: the RNAGym collection of RNA variant scans (doi:10.1093/nar/gkz1192)
